Data taken from patent publication US20020137019A1 (NEW YORK UNIVERSITY, published 2002).

Molecular target: T1, B42-AR18-500 (rat androgen receptor N-terminus, residues 18-500, fused to the B42 activation domain) (rat, UniProt P15207 18-500)
T1 construct: range 18-500; Yeast two-hybrid bait, galactose-inducible; also called AR18-500-AD; pJG4-5:AR18-500
T1 sequence (looked up): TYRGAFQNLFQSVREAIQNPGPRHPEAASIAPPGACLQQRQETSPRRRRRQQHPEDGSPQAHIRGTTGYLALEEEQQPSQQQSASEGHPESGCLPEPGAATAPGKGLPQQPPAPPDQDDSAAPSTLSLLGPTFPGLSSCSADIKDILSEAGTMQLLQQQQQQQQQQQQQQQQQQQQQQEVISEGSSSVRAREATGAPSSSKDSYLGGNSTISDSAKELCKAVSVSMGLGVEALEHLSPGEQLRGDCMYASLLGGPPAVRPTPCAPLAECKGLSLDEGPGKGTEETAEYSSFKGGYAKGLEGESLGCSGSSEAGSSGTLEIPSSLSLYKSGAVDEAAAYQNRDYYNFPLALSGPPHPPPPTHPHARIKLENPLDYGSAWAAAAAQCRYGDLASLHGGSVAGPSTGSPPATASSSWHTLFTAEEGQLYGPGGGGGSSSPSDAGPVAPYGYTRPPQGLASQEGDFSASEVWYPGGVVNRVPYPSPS
Test: modified yeast two-hybrid, quantitative liquid beta-galactosidase assay
Description: Out of approximately one million library transformants, eight clones were isolated that interact with the androgen receptor N-terminus. There protein factors were termed ARTs, for Androgen Receptor Trapped, by the present inventors. The eight ART clones were sequenced and were subjected to a database search using the BLAST program. A quantitative liquid beta-galactosidase assay was used to measure the relative strength of interaction between the androgen receptor N-terminus and the ARTs using the yeast two-hybrid system. The levels of expression of the ARTs in yeast were similar, as determined by immunoblotting using an antibody to the LexA DNA-binding domain that is common to all of the ARTs.
ARTs expressed as fusion proteins with the LexA DNA binding domain were analyzed for their ability to interact with AR₁₈₋₅₀₀. The relative strength of interaction was determined by a quantitative liquid beta-galactosidase assay after a twelve hour incubation in galactose-containing media at 30° C. The LexA vector alone gives 1 unit of activity.

B1: ART-27 (full length, […]; LexA DNA binding domain fusion) (other)
chain: MKALTARQQEVFDLIRDHISQTGMPPTRAEIAQRLGFRSPNAAEEHLKALARKGVIEIVSGASRGIRLLQEEEEGLPLVGRVAAGEPLLAQQHIEGHYQVDPSLFKPNADFLLRVSGMSMKDIGIMDGDLLAVHKTQDVRNGQVVVARIDDEVTVKRLKKQGNKVELLPENSEFKPIVVDLRQQSFTIEGLAVGVIRNGDWL[about 150 residues left out]
notes: also called LexA-ART-27; pEG202:ART-27
  binding result: binds
